This note sets out measurements from paper PMC7819943, “Rice protein-binding microarrays: a tool to detect cis-acting elements near promoter regions in rice”.

The list shows a part of the results.

The assay addresses T1, OsWOX13 (Oryza sativa, UniProt Q5QMM3 1-267).
T1 sequence: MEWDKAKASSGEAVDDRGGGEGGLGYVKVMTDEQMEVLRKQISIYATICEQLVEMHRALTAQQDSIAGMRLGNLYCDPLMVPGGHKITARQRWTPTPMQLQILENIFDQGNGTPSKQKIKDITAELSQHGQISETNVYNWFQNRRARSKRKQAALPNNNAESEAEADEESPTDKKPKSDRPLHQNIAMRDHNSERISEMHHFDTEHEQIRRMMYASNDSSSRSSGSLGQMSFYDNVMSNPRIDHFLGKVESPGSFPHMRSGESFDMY
The experiment in a line: protein-binding microarray (RPBM); PBS, 2% BSA, 51.3 ng/ul salmon testes DNA, 50 uM zinc acetate, 200 nM TF, 25 C, 1 h; high values mean tight binding. The note with it: protein: recombinant; tags: N-terminal polyhistidine and DsRed monomer fusion (pET32a); label: CyDye5-dUTP incorporated in the synthesized complementary strand; 3' TTTTT single-stranded linker to array surface; dsDNA, one strand shown. A digest of the protocol: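 The binding signal is fluorescence intensity per array feature (arbitrary units). Readings came from an Axon 4000B scanner after a washed, 2% BSA-blocked, double-stranded custom Agilent array had been incubated for 1 h at 25 °C with 200 nM protein and 50 µM zinc acetate. The protein was a Ni–NTA-purified transcription factor fused N-terminally to polyhistidine and DsRed, expressed in E. coli BL21-CodonPlus.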
Consider “GGTTTAATTAATTAATCGCGCCAACCCAGATGCTAATCAGCGGAGTCACCTAGTGCAG”, for which the binding signal is 50200 fluorescence intensity (a.u.).

Take “CTCGCCATCTTCGCCGTCCTTGCTTTCTTATATAAATTTTCGGAGTCACCTAGTGCAG”: the binding signal is 4080 fluorescence intensity (a.u.). Turning to “AATTGATGAAATATTGAATTGAAGGTTTGAAGGATGTGGCCGGAGTCACCTAGTGCAG”, the binding signal is 19800 fluorescence intensity (a.u.). The value for “ATACTGTAAAATGTTCTAATTAACATCACTTTAGAAAGATCGGAGTCACCTAGTGCAG” was 3660 fluorescence intensity (a.u.); that for “TTGACGCTGATCAAACCAAATTAATTACTCTCTCCGTTTCCGGAGTCACCTAGTGCAG” was 4920 fluorescence intensity (a.u.). The value for “AAATATTCCTTGATTTGTTACAGCAAGCTCATTAGACAATCGGAGTCACCTAGTGCAG” was 3590 fluorescence intensity (a.u.); that for “ATTATTTGTGATTTGATTGCTAGTGATTTGAACTAATGGCCGGAGTCACCTAGTGCAG” was 64300 fluorescence intensity (a.u.). For the sequence “AGTTTAATTAGGATATTTGAGCATTTTAATCTCAGTTTAGCGGAGTCACCTAGTGCAG”, the binding signal is 16200 fluorescence intensity (a.u.).

“ATTTAAATTTAAATTATCATAAACCATATCAACTTATATACGGAGTCACCTAGTGCAG”: the binding signal was 35300 fluorescence intensity (a.u.). Regarding “CTCTAAATTTTAGATGTATAAATTTGAGGTGTACAAACTTCGGAGTCACCTAGTGCAG”, the binding signal was 16600 fluorescence intensity (a.u.). On to “TGTAAATTTCTGTGTTTAACTTTAATCGGCTATCTTATTTCGGAGTCACCTAGTGCAG”, for which the binding signal was 4460 fluorescence intensity (a.u.). For “TATATAATTTTATAGGGTTACTAGCCCGCGCAAGCAAGCTCGGAGTCACCTAGTGCAG” the value was 3400 fluorescence intensity (a.u.); for “GTTAATTAAACTATAGGCATCATGGTAATTTTCTTCAGGTCGGAGTCACCTAGTGCAG”, 31300 fluorescence intensity (a.u.). For “CATTTATATTGATGTTAATGAATCAAGATAGATATATATGCGGAGTCACCTAGTGCAG” the value was 13000 fluorescence intensity (a.u.); for “CTAAAATGGCAAAGTGACGGCGCGCTCTCCGTATTGGCATCGGAGTCACCTAGTGCAG”, 6540 fluorescence intensity (a.u.); for “GAGCCAACCAATCACAGACCAGCATCCTGCCACGTGTCAGCGGAGTCACCTAGTGCAG”, 7860 fluorescence intensity (a.u.). For “CCTTGATGAGCAGTTACACTGTATACGCGCCCATCCCTACCGGAGTCACCTAGTGCAG” the value was 21600 fluorescence intensity (a.u.); for “TCTGGTCGTAAATTGACAACCAACCTTAAGAAAATCCAGGCGGAGTCACCTAGTGCAG”, 21300 fluorescence intensity (a.u.); for “TATTTAATTTATTCTTATAATAATCAAGCAGATAATTCATCGGAGTCACCTAGTGCAG”, 11900 fluorescence intensity (a.u.). For “CCGGTCTCCAAATCTTTATTAATTGCTTCCTCAAAACCCCCGGAGTCACCTAGTGCAG”, the binding signal was 3980 fluorescence intensity (a.u.). For “GCTGTTTGCCCATCAATCAAGAAATGGCGAACAAGGCTGTCGGAGTCACCTAGTGCAG” the value was 16400 fluorescence intensity (a.u.); for “AGTCTAACAAATTATTTCTGTACTTTGAGAATTGTTCTCTCGGAGTCACCTAGTGCAG”, 4820 fluorescence intensity (a.u.).

For the sequence “ATGGATTCTTGCAATCTTGATTGGTTTATAGTAGTACTTGCGGAGTCACCTAGTGCAG”, the binding signal was 13400 fluorescence intensity (a.u.).
